From the supplement of paper PMC10126150
Values marked as one replicate rest on one cluster of the flow cell; about a third of the high ones do not repeat.

System: ATP
Experiment: switch fluorescence ratio, 500 uM ATP over buffer (Cy3 cluster intensity, sum of 5 cycles each) (fold (ratio)); higher = stronger signal-on switching upon ATP binding; sequences stand for … in TCGTCGGCAGCGTCAGATGTGTATAAGAGACAGTTTTTTTTTTTTTTTTTTTTTTTTT…TC
Details: aptamer strand: ATP DNA aptamer (quencher-CACCTGGGGGAGTATTGCGGAGGAAGG + anchor), 100 nM annealed; ATP concentration: 500 uM; one replicate
Outline: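 Clusters with intensities outside 100-1000 RFU were excluded. The remaining Cy3-labelled switching-strand clusters on a modified Illumina MiSeq flow-cell had been annealed to 100 nM quencher-labelled ATP aptamer and imaged in selection buffer, then after 15 min with 500 uM ATP at 22 °C, for five cycles separated by NaOH stripping and re-annealing. The fluorescence ratio, averaged per switch-domain sequence, is each cluster's summed target-cycle Cy3 intensity over its summed buffer-cycle Cy3 intensity.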
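Note: ATP exposure 15 min at 22 °C before imaging.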

## CCAGGATGGT
  switch fluorescence ratio: 1.07

## TCACCAGGTC
  switch fluorescence ratio: 2.57

## AGAAAGAAGC
  switch fluorescence ratio: 0.972

## GAGGTTCGCC
  switch fluorescence ratio: 1.03

## CTGAAATGCG
  switch fluorescence ratio: 1.09

## GTTATTAATA
  switch fluorescence ratio: 0.996

## GAGATCTATT
  switch fluorescence ratio: 0.956

## TCTACAAATG
  switch fluorescence ratio: 0.99

## CGCATAGTGC
  switch fluorescence ratio: 1.8

## CCATGTTTTG
  switch fluorescence ratio: 0.969

## ACCGGTAGAA
  switch fluorescence ratio: 0.993

## TGTCATACAG
  switch fluorescence ratio: 0.996

## AGGTCCTAGT
  switch fluorescence ratio: 0.999

## CGACTCCGTT
  switch fluorescence ratio: 1.71

## TGCCGGGAAG
  switch fluorescence ratio: 1.02

## TAAAGTTTTA
  switch fluorescence ratio: 0.992

## TTGAACCGCT
  switch fluorescence ratio: 1.01

## AACCTAGCAA
  switch fluorescence ratio: 5.13

## CGCTTCTTAC
  switch fluorescence ratio: 3.14

## ACGGCCGCGA
  switch fluorescence ratio: 0.902

## ATCAATAACG
  switch fluorescence ratio: 1.01

## GCGCACGCTT
  switch fluorescence ratio: 1.05

## GGGTAGTTGC
  switch fluorescence ratio: 0.969

## TGTTCGTCAG
  switch fluorescence ratio: 0.997

## AGCGAGTTAA
  switch fluorescence ratio: 0.993

## TTCAGTTCCT
  switch fluorescence ratio: 1.04

## CATACCTGGT
  switch fluorescence ratio: 1.02

## TAAAGGTGG
  switch fluorescence ratio: 0.99

## GTTCGCCGCG
  switch fluorescence ratio: 0.965

## CGTTAGAAGT
  switch fluorescence ratio: 0.998

## GGCTATTAGG
  switch fluorescence ratio: 1.02

## GTTGAGTGCC
  switch fluorescence ratio: 1.02

## GTGTGATGGA
  switch fluorescence ratio: 1.05

## AATTTGACAG
  switch fluorescence ratio: 1.02

## CCGGACGTTG
  switch fluorescence ratio: 1.03

## TTGCGTGGTT
  switch fluorescence ratio: 0.978

## CTTTTTGCAG
  switch fluorescence ratio: 0.974

## TGGTTAGTGA
  switch fluorescence ratio: 0.995

## TCACGGGCGT
  switch fluorescence ratio: 0.988

## TACGTAAAAA
  switch fluorescence ratio: 1.05

## ATAGGACGAG
  switch fluorescence ratio: 0.982

## AAGAATGACA
  switch fluorescence ratio: 1.04

## CTGGGTACCC
  switch fluorescence ratio: 1.03

## CTATGTAGTG
  switch fluorescence ratio: 1.01

## ACGTAAGGAA
  switch fluorescence ratio: 1.03

## AGAATGTGGC
  switch fluorescence ratio: 0.988

## GTGGTCGACA
  switch fluorescence ratio: 1.04

## GGGGTCGCGC
  switch fluorescence ratio: 1.02

## GAATGGGCGG
  switch fluorescence ratio: 0.99

## ATCGAAGTTT
  switch fluorescence ratio: 0.963

## AAATTCAGG
  switch fluorescence ratio: 1.02

## GGATTAGGCA
  switch fluorescence ratio: 1.04

## CGGGATTTGC
  switch fluorescence ratio: 0.991

## GCCACGGCGG
  switch fluorescence ratio: 1.03

## CAGTGAA
  switch fluorescence ratio: 0.982

## CTTAACTGCG
  switch fluorescence ratio: 0.987

## GAGGACCGCA
  switch fluorescence ratio: 1.29

## GGGGCTCTC
  switch fluorescence ratio: 1.03

## TTGTAATTGG
  switch fluorescence ratio: 1.02

## ACCTACAATG
  switch fluorescence ratio: 1.18

## CCCTGTTT
  switch fluorescence ratio: 1.03

## TGCCAGCAGC
  switch fluorescence ratio: 1.03

## AAGTCCTATA
  switch fluorescence ratio: 0.997

## TCTCAGACGC
  switch fluorescence ratio: 1.21

## CTTTTGTTTT
  switch fluorescence ratio: 1.17

## TGGTACTGAC
  switch fluorescence ratio: 1.28

## GGCGCCTAGA
  switch fluorescence ratio: 1.03

## AAGGTGGACG
  switch fluorescence ratio: 0.962

## CGTCCGTCCA
  switch fluorescence ratio: 1.41

## GAAATGGGT
  switch fluorescence ratio: 0.983

## CATGCAATCG
  switch fluorescence ratio: 1.3

## GGGGACCGAA
  switch fluorescence ratio: 1.01

## TGCGGGATC
  switch fluorescence ratio: 1.01

## TTAGCAACTT
  switch fluorescence ratio: 1.35

## GCCGACGTGC
  switch fluorescence ratio: 1.01

## GCTCCCGAAT
  switch fluorescence ratio: 1.43

## TTCCAACCGG
  switch fluorescence ratio: 1.07

## TGCGTAAATT
  switch fluorescence ratio: 1

## GATCCATAGG
  switch fluorescence ratio: 0.973

## GGGGATTCGA
  switch fluorescence ratio: 1.01

## TGTGCCTGG
  switch fluorescence ratio: 0.975

## CCAGAGTACT
  switch fluorescence ratio: 1.07

## TTTGGTGGG
  switch fluorescence ratio: 0.995

## CCAGCAGGCT
  switch fluorescence ratio: 1.1

## GTTGGAAGTT
  switch fluorescence ratio: 0.925

## ACTAGGTC
  switch fluorescence ratio: 1.05

## GCATTTCGTC
  switch fluorescence ratio: 1.01

## GAAAAGTACG
  switch fluorescence ratio: 1.02

## ATTAAGTCCC
  switch fluorescence ratio: 1.02

## GGCTCATAGC
  switch fluorescence ratio: 1.01

## ATACAGCGTG
  switch fluorescence ratio: 0.983

## AGACCTTTG
  switch fluorescence ratio: 1.04

## TTAGTCGATT
  switch fluorescence ratio: 1.01

## GCTTTGAAGG
  switch fluorescence ratio: 0.951

## TGACGGGGTC
  switch fluorescence ratio: 1.01

## GTTAGGGGAC
  switch fluorescence ratio: 0.978

## TTTGGTCAGG
  switch fluorescence ratio: 1

## AATGGTCTTG
  switch fluorescence ratio: 0.997

## GATCAGGAAA
  switch fluorescence ratio: 0.998

## ATGATAGTA
  switch fluorescence ratio: 0.963

## TTGCTTTCCG
  switch fluorescence ratio: 1.04

## TTATTCGGGT
  switch fluorescence ratio: 0.957

## GGTATGAGGG
  switch fluorescence ratio: 1.02

## CAGTTAATAT
  switch fluorescence ratio: 0.995

## TTACGCACGG
  switch fluorescence ratio: 1.36

## TGACATTCTG
  switch fluorescence ratio: 1.05

## GGGGAGAACC
  switch fluorescence ratio: 0.967

## CGGATTTCTA
  switch fluorescence ratio: 0.997

## TTCGATGTTC
  switch fluorescence ratio: 0.977

## TTAGTTCCGC
  switch fluorescence ratio: 1.13

## GACAGAACTA
  switch fluorescence ratio: 1.1

## TAGTGCCGGA
  switch fluorescence ratio: 1

## GCTCCTTCTT
  switch fluorescence ratio: 1.05

## GGCTTACCCT
  switch fluorescence ratio: 1.03

## TGCCGCTGCA
  switch fluorescence ratio: 1.11

## AGATGCACGT
  switch fluorescence ratio: 1

## GCAGTTAGAC
  switch fluorescence ratio: 1.38

## CGCGCAAGCG
  switch fluorescence ratio: 0.986

## TTAAAGTATA
  switch fluorescence ratio: 0.978

## ACACTTAGAG
  switch fluorescence ratio: 1.02

## AGTCTCCTTA
  switch fluorescence ratio: 0.951

## ATGCCTGACT
  switch fluorescence ratio: 0.99

## AAGAGGCA
  switch fluorescence ratio: 0.996

## CTGTCACGAG
  switch fluorescence ratio: 1.05

## TGCGATCAGA
  switch fluorescence ratio: 0.99

## ATTGAGCCA
  switch fluorescence ratio: 1.08

## CAGTTACTTC
  switch fluorescence ratio: 1.04

## ATCCCCGTAT
  switch fluorescence ratio: 1.08

## CCTGTCGCGT
  switch fluorescence ratio: 1.38

## AATGGGAGGT
  switch fluorescence ratio: 1.03

## GCTACACGGG
  switch fluorescence ratio: 1.05

## ATACTGATAA
  switch fluorescence ratio: 1.08

## GCCGAGGGAT
  switch fluorescence ratio: 1.02

## AGTGTCATGG
  switch fluorescence ratio: 0.977

## GTAACTCAGC
  switch fluorescence ratio: 0.998

## TATTGTGAGG
  switch fluorescence ratio: 1

## AGGCGGTCTA
  switch fluorescence ratio: 1.02

## GAGAGCAGCG
  switch fluorescence ratio: 1.13

## TGAAATAATA
  switch fluorescence ratio: 0.978

## TCCAACCGAC
  switch fluorescence ratio: 2.39

## CTTTTAAAGG
  switch fluorescence ratio: 1.03

## CGGATTCTCT
  switch fluorescence ratio: 0.941

## CCCTCAAGCA
  switch fluorescence ratio: 2.75

## GTTTGTAGAT
  switch fluorescence ratio: 1.12

## CTCTATAGTG
  switch fluorescence ratio: 0.994

## TATGGCGTGG
  switch fluorescence ratio: 1

## ATACTTTCGT
  switch fluorescence ratio: 0.95

## TCTTATGGAT
  switch fluorescence ratio: 1.01

## TAAATTCGAT
  switch fluorescence ratio: 0.971

## GAACTAGTGG
  switch fluorescence ratio: 1.02

## GCGTCTATGG
  switch fluorescence ratio: 1.01

## CGGATCTGAT
  switch fluorescence ratio: 0.999

## GCACGGACGA
  switch fluorescence ratio: 1.27

## TGATCTGACA
  switch fluorescence ratio: 1.01

## TCTAGATGCC
  switch fluorescence ratio: 1.08

## GAACTATTTA
  switch fluorescence ratio: 1.09

## CAAAGGCAGA
  switch fluorescence ratio: 1.03
